Assay [1] addresses c-JUN-Myc (c-JUN, Myc-tagged) (UniProt P05627). As to the kind of experiment: co-IP; osteocytes transfected with NRF2-HA and c-JUN-Myc plasmids (or their truncations); NP-40 lysis buffer, primary antibody or normal IgG at 4 °C for 16 h, Protein A/G PLUS-Agarose, western blot.
In assay [2] the target is Δc-JUN (truncated c-JUN mutant lacking amino acids 207–219), Myc-tagged (UniProt P05627). Described as above.
The target of assay [3] is c-JUN-Myc (c-JUN, Myc-tagged) (UniProt P05627). Nature of the assay: co-IP; transfected osteocytes in the absence of HGHF treatment (Fig. S9); NP-40 lysis buffer, Protein A/G PLUS-Agarose, western blot.
The target in assay [4] is endogenous c-JUN (mouse (endogenous in IDG-SW3)) (UniProt P05627). Nature of the assay: co-IP; endogenous proteins in osteocytes under HGHF treatment; NP-40 lysis buffer, primary antibody or normal IgG at 4 °C for 16 h, Protein A/G PLUS-Agarose, western blot.
For assay [5] the target is unchanged. Nature of the assay: co-IP; endogenous proteins in osteocytes in the absence of HGHF treatment (Fig. S9); NP-40 lysis buffer, Protein A/G PLUS-Agarose, western blot. On the technique in general: Immunoblotting shows a protein as a band on a membrane.

Amino acid sequences for entries named in this document (tags omitted). A change or cut given only in a name is not applied to a line headed by its entry. Chains listed by the source or under a name are the forms on record and can include a tag or linker.
UniProt P05627: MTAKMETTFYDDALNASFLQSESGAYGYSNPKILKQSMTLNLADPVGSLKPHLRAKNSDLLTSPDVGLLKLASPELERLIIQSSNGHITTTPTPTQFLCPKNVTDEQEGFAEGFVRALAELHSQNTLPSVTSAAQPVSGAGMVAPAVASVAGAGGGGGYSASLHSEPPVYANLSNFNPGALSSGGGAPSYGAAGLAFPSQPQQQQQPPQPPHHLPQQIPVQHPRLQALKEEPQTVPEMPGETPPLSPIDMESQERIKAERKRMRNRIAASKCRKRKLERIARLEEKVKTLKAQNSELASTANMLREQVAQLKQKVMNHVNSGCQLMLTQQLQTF
Δc-JUN (truncated c-JUN mutant lacking amino acids 207–219), Myc-tagged (P05627, form named): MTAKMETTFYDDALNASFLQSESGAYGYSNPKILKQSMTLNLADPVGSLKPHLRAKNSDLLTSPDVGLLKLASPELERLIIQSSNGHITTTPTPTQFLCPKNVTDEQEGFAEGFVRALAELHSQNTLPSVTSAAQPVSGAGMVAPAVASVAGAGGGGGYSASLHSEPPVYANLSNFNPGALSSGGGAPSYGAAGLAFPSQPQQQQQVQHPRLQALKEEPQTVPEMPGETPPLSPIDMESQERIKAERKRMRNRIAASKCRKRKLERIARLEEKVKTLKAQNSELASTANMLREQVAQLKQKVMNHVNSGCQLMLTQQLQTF

These are yes or no findings as the source states them, for the method shown. In cells and extracts the contact can be indirect. Some binding calls cover weakened binding; strength is not graded here. For part of these data: Tags and fused reporters may be left off the sequences shown.

B1: ΔNRF2 (truncated NRF2 mutant lacking amino acids 107–115), HA-tagged (protein, UniProt Q60795)
chain: MMDLELPPPGLQSQQDMDLIDILWRQDIDLGVSREVFDFSQRQKDYELEKQKKLEKERQEQLQKEQEKAFFAQFQLDEETGEFLPIQPAQHIQTDTSGSASYSQVAFEDCMQLLAETFPFVDDHESLALDIPSHAESSVFTAPHQAQSLNSSLEAAMTDLSSIEQDMEQVWQELFSIPELQCLNTENKQLADTTAVPSPEATLTEMDSNYHFYSSISSLEKEVGNCGPHFLHGFEDSFSSILSTDDASQLTSLDSNPTLNTDFGDEFYSAFIAEPSDGGSMPSSAAISQSLSELLDGTIEGCDLSLCKAFNPKHAEGTMEFNDSDSGISLNTSPSRASPEHSVESSIYGDPPPGFSDSEMEELDSAPGSVKQNGPKAQPAHSPGDTVQPLSPAQGHSAPMRESQCENTTKKEVPVSPGHQKAPFTKDKHSSRLEAHLTRDELRAKALHIPFPVEKIINLPVDDFNEMMSKEQFNEAQLALIRDIRRRGKNKVAAQNCRKRKLENIVELEQDLGHLKDEREKLLREKGENDRNLHLLKRRLSTLYLEVFSMLRDEDGKPYSPSEYSLQQTRDGNVFLVPKSKKPDTKKN
In the case of B1, the binding result in assay [1] is “no binding”.

B2: NRF2-HA (nuclear factor-like 2, HA-tagged) (protein, UniProt Q60795 1-597)
chain: MMDLELPPPGLQSQQDMDLIDILWRQDIDLGVSREVFDFSQRQKDYELEKQKKLEKERQEQLQKEQEKAFFAQFQLDEETGEFLPIQPAQHIQTDTSGSASYSQVAHIPKQDALYFEDCMQLLAETFPFVDDHESLALDIPSHAESSVFTAPHQAQSLNSSLEAAMTDLSSIEQDMEQVWQELFSIPELQCLNTENKQLADTTAVPSPEATLTEMDSNYHFYSSISSLEKEVGNCGPHFLHGFEDSFSSILSTDDASQLTSLDSNPTLNTDFGDEFYSAFIAEPSDGGSMPSSAAISQSLSELLDGTIEGCDLSLCKAFNPKHAEGTMEFNDSDSGISLNTSPSRASPEHSVESSIYGDPPPGFSDSEMEELDSAPGSVKQNGPKAQPAHSPGDTVQPLSPAQGHSAPMRESQCENTTKKEVPVSPGHQKAPFTKDKHSSRLEAHLTRDELRAKALHIPFPVEKIINLPVDDFNEMMSKEQFNEAQLALIRDIRRRGKNKVAAQNCRKRKLENIVELEQDLGHLKDEREKLLREKGENDRNLHLLKRRLSTLYLEVFSMLRDEDGKPYSPSEYSLQQTRDGNVFLVPKSKKPDTKKN
In the case of B2, the binding entry in assay [2] is given as “no binding”; in assay [1], “binds”; in assay [3] it was “binds weakly”.

B3: endogenous NRF2 (protein, UniProt Q60795 1-597)
chain: B2 chain
Turning to B3, the values for the binding result in assay [4] and in assay [5] were “binds” and “no binding (condition: in the absence of HGHF treatment)”, respectively.

Source of the values: paper PMC8904790.
